Here are results for 45 compounds from paper PMC4336329 (PLoS ONE, 2015).

About 2,200 (0.71%) of roughly 310,000 compounds showed an effect of 50% or more. Effects have a minus sign here. The list shows a part of the results.

The target of this assay is human ether-à-go-go-related gene (hERG) potassium channel (human, UniProt Q12809). The assay is described as follows: primary screen, population patch clamp on CHO cells stably expressing hERG.
Sequence of human ether-à-go-go-related gene (hERG) potassium channel (Q12809 whole entry, looked up): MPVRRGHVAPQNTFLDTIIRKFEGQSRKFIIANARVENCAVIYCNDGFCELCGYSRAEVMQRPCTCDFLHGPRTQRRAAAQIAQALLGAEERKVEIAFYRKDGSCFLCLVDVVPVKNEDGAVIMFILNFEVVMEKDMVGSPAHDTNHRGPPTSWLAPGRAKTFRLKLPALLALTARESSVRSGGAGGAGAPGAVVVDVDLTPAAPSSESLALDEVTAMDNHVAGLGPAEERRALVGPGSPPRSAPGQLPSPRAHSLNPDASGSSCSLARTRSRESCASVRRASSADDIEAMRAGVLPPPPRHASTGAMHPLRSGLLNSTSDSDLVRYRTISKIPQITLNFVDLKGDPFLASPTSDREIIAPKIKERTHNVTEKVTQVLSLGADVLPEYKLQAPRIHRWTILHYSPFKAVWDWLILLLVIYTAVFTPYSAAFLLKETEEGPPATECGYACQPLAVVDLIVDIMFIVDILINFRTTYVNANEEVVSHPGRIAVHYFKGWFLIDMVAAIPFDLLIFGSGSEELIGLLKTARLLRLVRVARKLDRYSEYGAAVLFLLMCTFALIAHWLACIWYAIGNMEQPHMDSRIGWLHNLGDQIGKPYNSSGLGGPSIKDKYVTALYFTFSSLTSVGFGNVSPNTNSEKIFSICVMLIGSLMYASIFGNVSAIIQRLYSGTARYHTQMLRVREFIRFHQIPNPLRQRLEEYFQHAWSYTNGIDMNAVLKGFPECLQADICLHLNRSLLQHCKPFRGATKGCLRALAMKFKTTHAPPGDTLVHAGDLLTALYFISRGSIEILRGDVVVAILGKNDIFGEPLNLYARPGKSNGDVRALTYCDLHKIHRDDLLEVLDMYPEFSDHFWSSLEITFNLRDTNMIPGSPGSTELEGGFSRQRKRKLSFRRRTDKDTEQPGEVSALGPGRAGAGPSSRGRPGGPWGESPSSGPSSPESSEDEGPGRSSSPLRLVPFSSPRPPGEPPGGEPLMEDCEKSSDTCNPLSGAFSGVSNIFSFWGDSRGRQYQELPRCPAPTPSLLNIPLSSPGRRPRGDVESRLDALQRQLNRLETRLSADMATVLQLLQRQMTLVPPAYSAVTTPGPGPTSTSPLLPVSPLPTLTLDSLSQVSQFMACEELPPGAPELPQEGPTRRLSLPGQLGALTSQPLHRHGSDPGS
For `CN(C)C(=O)CSc1nnc(Cc2ccc3c(c2)OCO3)o1`, the “hERG current change (%, negative = inhibition) at 1uM” value worked out at 12.8%.

`COc1ccc(Br)cc1C(=O)Nc1ccc(Cc2ccncc2)cc1`: the “hERG current change (%, negative = inhibition) at 1uM” value was -0.358%.

Regarding `CCCCn1c(N)c(N(CC(C)C)C(=O)c2ccc(C)c(S(=O)(=O)N3CCCCC3)c2)c(=O)[nH]c1=O`, the “hERG current change (%, negative = inhibition) at 1uM” value is on record as -9.25%.

Regarding `CCP(=O)(c1ccccc1)C(C)(C)O` (stereo not drawn), the “hERG current change (%, negative = inhibition) at 1uM” value is listed as 15.3%.

Take `CCOC(=O)Cn1nc(C)n(-c2ccc(F)cc2)c1=O`: the “hERG current change (%, negative = inhibition) at 1uM” value came to 4.73%.

Consider `O=c1[nH]c(/C=C/c2ccc3c(c2)OCO3)c([N+](=O)[O-])c(=O)[nH]1`, for which the “hERG current change (%, negative = inhibition) at 1uM” value came out at 7.58%.

With `CCCCOc1ccc(N(CC(=O)NCC2CCCO2)C(=O)CCC(=O)Nc2cc(C)ccn2)cc1` (stereo not drawn), the “hERG current change (%, negative = inhibition) at 1uM” value is 7.17%.

For the compound `Cc1cc(C)cc(CC2CC(=O)N(c3nc(C)cc(C)n3)C2=O)c1` (stereo not drawn), the “hERG current change (%, negative = inhibition) at 1uM” value is listed as -5.23%.

As to `O=C(CCNS(=O)(=O)c1ccc(Cl)cc1)N1CCN(Cc2ccccc2)CC1`, the “hERG current change (%, negative = inhibition) at 1uM” value is listed as -16.1%.

As to `CCn1ncc(Br)c1C(=O)Nc1nccs1`, the “hERG current change (%, negative = inhibition) at 1uM” value was -3.91%.

For the compound `Cc1ccnc(NC(=O)CC(c2ccccc2)c2ccccc2)n1`, the “hERG current change (%, negative = inhibition) at 1uM” value turned out to be 6.14%.

In the case of `Cc1ccc(NS(=O)(=O)c2ccc(NC(=O)C3CCCO3)cc2)cc1` (stereo not drawn), the “hERG current change (%, negative = inhibition) at 1uM” value is 12.2%.

`CCN(CC)CCCN1C(=O)C(O)=C(C(=O)c2cc3ccccc3o2)C1c1ccccn1` (stereo not drawn): the “hERG current change (%, negative = inhibition) at 1uM” value is recorded as 11.7%.

In the case of `COc1cccc(C(=O)OCC(=O)c2[nH]c(C)c(C(C)=O)c2C)c1`, the “hERG current change (%, negative = inhibition) at 1uM” value is reported as 2.96%.

On to `COc1ccc(/C=N/n2c(C3CCCCC3)n[nH]c2=S)c(OC)c1`, for which the “hERG current change (%, negative = inhibition) at 1uM” value came out at 14.1%.

Take `FC(F)(F)c1ccc2c(c1)NCC1CCCN21` (stereo not drawn): the “hERG current change (%, negative = inhibition) at 1uM” value is recorded as 22.6%.

Turning to `CCCOC(=O)Nc1cc(OC)ccc1[N+](=O)[O-]`, the “hERG current change (%, negative = inhibition) at 1uM” value is on record as 16.1%.

With `C/C(CC(O)(/C=N/O)c1ccccc1)=N\O` (stereo not drawn), the “hERG current change (%, negative = inhibition) at 1uM” value is reported as 14.1%.

As for `CCN(CC)S(=O)(=O)c1ccc(C(=O)OCC(=O)NC2CCCC2)cc1`, the “hERG current change (%, negative = inhibition) at 1uM” value is given as 20.2%.

For `O=C(c1ccccc1S(=O)(=O)NCc1ccccc1)N1CCCC1`, the “hERG current change (%, negative = inhibition) at 1uM” value turned out to be 2.93%.

Take `O=C(c1ccccc1)N1N=C(c2ccccc2)CC1c1ccccc1[N+](=O)[O-]` (stereo not drawn): the “hERG current change (%, negative = inhibition) at 1uM” value was found to be 9.03%.

As to `C=CCOc1ccc(C2NC(=S)NC(c3ccccc3)=C2C(C)=O)cc1OC` (stereo not drawn), the “hERG current change (%, negative = inhibition) at 1uM” value is given as -1.18%.

In the case of `COc1ccccc1C(=O)OCC(=O)NC(=O)NC1CCCC1`, the “hERG current change (%, negative = inhibition) at 1uM” value was determined as 8.02%.

With `CN(CC(=O)Nc1ccc(F)c(F)c1F)C(=O)/C=C/c1ccc(Cl)cc1`, the “hERG current change (%, negative = inhibition) at 1uM” value turned out to be 3.46%.

For `COC(=O)Cn1c(=NC(=O)c2ccc([N+](=O)[O-])s2)sc2cc(Br)ccc21`, the “hERG current change (%, negative = inhibition) at 1uM” value came out at 14%.

Regarding `COc1cccc(CNS(=O)(=O)c2c(C(=O)N3CCCC3)c(C)n(C)c2C)c1`, the “hERG current change (%, negative = inhibition) at 1uM” value stood at 13.5%.

Turning to `COc1cc(C=C(c2nc3ccccc3s2)c2nc3ccccc3s2)cc(OC)c1O`, the “hERG current change (%, negative = inhibition) at 1uM” value was 2.07%.

Regarding `Cc1nn(C(C)C(=O)O)c(C)c1[N+](=O)[O-]` (stereo not drawn), the “hERG current change (%, negative = inhibition) at 1uM” value was determined as 13.9%.

Take `O=C(Nc1cccc(Cl)c1)O/N=C\c1ccncc1`: the “hERG current change (%, negative = inhibition) at 1uM” value was 0.219%.

In the case of `CCCCN(CC)CCNC(=O)C1CCN(S(=O)(=O)c2cccc3nsnc23)CC1`, the “hERG current change (%, negative = inhibition) at 1uM” value was 1.54%.

In the case of `COC(=O)c1cnc(SC)nc1C`, the “hERG current change (%, negative = inhibition) at 1uM” value is -3.4%.

For `C=CCNC(=O)[C@@H]1CSC2c3ccc(OC)c(OC)c3C(=O)N21` (stereo partly drawn), the “hERG current change (%, negative = inhibition) at 1uM” value is on record as 15%.

With `C/C=C/C(=O)Nc1cccc(C2=NOC3(C2)C[C@H](C(N)=O)N(C(=O)/C=C/C)C3)c1` (stereo partly drawn), the “hERG current change (%, negative = inhibition) at 1uM” value came to 7.97%.

In the case of `CCOC(=O)CSC1=Nc2ccccc2C2=NC(CC(=O)NCc3ccc4c(c3)OCO4)C(=O)N12` (stereo not drawn), the “hERG current change (%, negative = inhibition) at 1uM” value is on record as -4.24%.

Turning to `O=C(Nc1ccncc1)c1cc(S(=O)(=O)N2CCN(c3ccccc3)CC2)ccc1Cl`, the “hERG current change (%, negative = inhibition) at 1uM” value is -18.3%.

For the compound `CCOC(=O)c1cc(C(C)(C)C)oc1CN`, the “hERG current change (%, negative = inhibition) at 1uM” value is listed as 14%.

Turning to `C=C(C)CNC(=S)N/N=C/c1c(F)cccc1F`, the “hERG current change (%, negative = inhibition) at 1uM” value was 4.81%.

As to `O=C(O)CCC(=O)Nc1ccc(-n2ccc(C(F)(F)F)n2)cc1`, the “hERG current change (%, negative = inhibition) at 1uM” value was 15.4%.

`CC(=O)c1ccc(NC(=O)C(C)OC(=O)CCN=C2NS(=O)(=O)c3ccccc32)cc1` (stereo not drawn): the “hERG current change (%, negative = inhibition) at 1uM” value came out at 10.4%.

With `O=C(CSc1nnc(Cc2cccs2)n1-c1ccccc1)NC1CCCCC1`, the “hERG current change (%, negative = inhibition) at 1uM” value was -13.5%.

Consider `O=C(NCCCN1CCOCC1)c1ccco1`, for which the “hERG current change (%, negative = inhibition) at 1uM” value is 13.8%.

Take `Cc1ccc(NC2CCCN(C(=O)CCc3ccncc3)C2)cc1C` (stereo not drawn): the “hERG current change (%, negative = inhibition) at 1uM” value is reported as -3.54%.

Regarding `Cc1nc(C)c(Cc2ccccc2Cl)c(=O)[nH]1`, the “hERG current change (%, negative = inhibition) at 1uM” value is recorded as 12%.

`CCOC(=O)c1cnc(-n2nc(C)cc2C)nc1NNc1nc(-c2ccccc2)cc(-c2ccccc2)n1`: the “hERG current change (%, negative = inhibition) at 1uM” value is given as -1.53%.

For `CC(C)c1ccc(/C=N/n2c(-c3ccccc3)n[nH]c2=S)cc1`, the “hERG current change (%, negative = inhibition) at 1uM” value came to 12.4%.
